# Measured values taken from PubChem BioAssay AID1460 (National Center for Advancing Translational Sciences (NCATS), 2008).
# The campaign covered roughly 270,000 compounds. About 5,800 (2.1%) were called active. The shares of active, inactive and inconclusive entries below differ from those in the screen. Calls follow the shape of the dose curve; as a rule, active = well fitted inhibition curve with a large enough effect; inconclusive = small, poorly fitted or top-dose-only effect; inactive = flat fitted curve, though single readings scatter. Potencies beside an inconclusive call are fits to weak or partial responses and may not hold up.
# Target: Microtubule-associated protein tau (Homo sapiens) (UniProt P10636)
# Experiment: qHTS for Inhibitors of Tau Fibril Formation, Thioflavin T Binding; also: nearly all actives have a fitted effect of over 55% in size
# Conditions: recombinant tau K18 P301L, heparin-induced fibrillization, ThT fluorescence; series mostly up to 57.4 µM
# Procedure, shortened: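 ThT emission at 510 nm, taken 1 hr after adding 30 uM dye, quantifies aggregates formed when 20 uM heparin acts on human tau K18 P301L for 6 hr at 37 C.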
# Potency is read from the fitted curve at half-maximal effect; tags tell the direction and shape of the fitted curve.
# UniProt P10636, sequence (P10636 whole entry, looked up): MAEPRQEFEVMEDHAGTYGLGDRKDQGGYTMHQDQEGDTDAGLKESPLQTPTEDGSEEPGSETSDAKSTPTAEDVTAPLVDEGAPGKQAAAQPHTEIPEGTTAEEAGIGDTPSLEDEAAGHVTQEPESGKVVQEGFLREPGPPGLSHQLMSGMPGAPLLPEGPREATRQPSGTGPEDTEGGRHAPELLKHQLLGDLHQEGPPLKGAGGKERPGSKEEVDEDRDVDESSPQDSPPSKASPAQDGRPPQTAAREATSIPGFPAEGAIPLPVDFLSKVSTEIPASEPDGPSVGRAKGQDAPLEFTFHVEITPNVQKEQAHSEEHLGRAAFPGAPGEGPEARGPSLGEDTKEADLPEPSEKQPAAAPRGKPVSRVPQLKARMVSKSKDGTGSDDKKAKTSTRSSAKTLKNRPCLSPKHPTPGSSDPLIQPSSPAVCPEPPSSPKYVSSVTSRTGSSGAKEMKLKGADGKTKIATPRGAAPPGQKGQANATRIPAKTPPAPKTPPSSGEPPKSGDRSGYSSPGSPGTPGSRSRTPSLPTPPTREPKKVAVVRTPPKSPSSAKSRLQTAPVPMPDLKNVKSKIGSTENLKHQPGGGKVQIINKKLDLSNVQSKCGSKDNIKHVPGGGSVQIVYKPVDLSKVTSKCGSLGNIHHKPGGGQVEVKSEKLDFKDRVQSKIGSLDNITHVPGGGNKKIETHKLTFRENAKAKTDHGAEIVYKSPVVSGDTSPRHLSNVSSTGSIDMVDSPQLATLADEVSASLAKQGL
row,Compound,Potency
1,CN(C)C1=NCC(CSC(=N)N)S1 (stereo not given),"inconclusive: 28.2 µM [inhibitor, partial curve]"
2,CCOC(=O)CSc1nc(-c2ccc(C)cc2C)cc(-c2ccccc2)c1C#N,inactive
3,Cc1ccc(C(=O)CSc2nc(-c3ccccc3)nc3c2CCCC3)cc1,inactive
4,CCOc1ccccc1NC(=O)N1CC(CC)Oc2ccccc21 (stereo not given),inactive
5,Cc1ccc(OCCn2cc(/C=C3\C(=O)NN(c4ccccc4)C3=O)c3ccccc32)cc1,active: 7.08 µM
6,CCOC(=O)c1sc(=S)n(CC)c1N,inactive
7,COc1cc(Nc2nc(SCC(=O)c3ccc(Br)cc3)nc3ccccc23)cc(OC)c1,"inconclusive: 10 µM [activator, partial curve, poor fit]"
8,Cc1ccc(C(=O)/C=C/c2ccccc2[N+](=O)[O-])cc1,"inconclusive: 10 µM [inhibitor, partial curve]"
9,O=C(CC1N=C2c3ccccc3N=C(SCc3cccc(Cl)c3)N2C1=O)NCc1ccc2c(c1)OCO2 (stereo not given),"inconclusive: 28.2 µM [inhibitor, partial curve]"
10,CCOC(=O)C1=C(C)OC(N)=C(C#N)C1c1cccc(C)c1 (stereo not given),"inconclusive: 39.8 µM [inhibitor, single point]"
11,O=C(c1cc2nc(-c3ccco3)cc(C(F)(F)F)n2n1)N1CCN(c2ccccc2)CC1,"inconclusive: 20 µM [inhibitor, partial curve]"
12,O/N=C/c1ccccc1OCc1ccc(Cl)cc1,"inconclusive: 12.6 µM [inhibitor, single point]"
13,O=C(NC1CCCCC1)C(c1cccnc1)N(C(=O)c1csnn1)C1CCCC1 (stereo not given),inactive
14,O=C(Oc1cccc(N2C(=O)CCC2=O)c1)C1CC(=O)N(c2ccc(Br)cc2)C1 (stereo not given),"inconclusive: 17.8 µM [inhibitor, partial curve]"
15,COc1ccc(OC)c(NC(=O)CS(=O)(=O)Cc2nc(-c3ccccc3C)oc2C)c1,"inconclusive: 14.1 µM [inhibitor, single point]"
16,N#C/C(=C\c1ccc(-c2ccc(C(=O)O)cc2)o1)C(=O)Nc1ccccc1C(=O)O,active: 2.51 µM
17,O=C1NC(=NCc2ccccc2)S/C1=C\c1ccccc1,inactive
18,CCOc1ccc(CCNC(=O)c2cc3c(=O)oc4ccc(C)cc4c3s2)cc1OCC,inactive
19,O=C1OCCC1Sc1nnnn1-c1ccccc1 (stereo not given),inactive
20,S=C1NC2=C(CCC/C2=C\c2ccccc2)C(c2ccccc2)N1 (stereo not given),"inconclusive: 39.8 µM [inhibitor, single point]"
21,CC(=O)c1cccc(NC(=S)NC(=O)CC(C)(C)C)c1,inactive
22,Cc1csc(NC(=O)CCCC(=O)O)c1-c1nc2ccccc2s1,"inconclusive: 28.2 µM [inhibitor, single point]"
23,Nc1nc(Cl)cc(N2CCOCC2)n1,"inconclusive: 0.0708 µM [inhibitor, full curve, poor fit]"

row,Compound,Potency
1,O=C(N/N=C/c1cn(CC(=O)N2CCOCC2)c2ccccc12)c1cccnc1,inactive
2,C=CCN1c2ccccc2[C@]23C[C@@H](C(=O)OC)N(C(=O)NCCC)C2=NC(C(=O)OC)=C(C(=O)OC)[C@H]13,inactive
3,O=C(CCCN1C(=O)CCC1=O)Nc1ccccc1F,"inconclusive: 35.5 µM [inhibitor, partial curve]"
4,Cc1noc(NS(=O)(=O)c2ccc(NC(=O)CSc3nnc4c(n3)[nH]c3ccccc34)cc2)c1C,"inconclusive: 22.4 µM [inhibitor, single point]"
5,N#C/C(=C(/O)C(Cl)(Cl)Cl)c1nc2ccccc2[nH]1,"inconclusive: 11.2 µM [inhibitor, partial curve]"
6,COc1ccc(CCc2nc(-c3ccc(-n4cccc4)cc3)no2)cc1,"inconclusive: 0.891 µM [inhibitor, full curve, poor fit]"
7,N#Cc1cc2ccccc2nc1SCc1ccccn1,active: 15.8 µM
8,O=C(COc1cccc2cccnc12)N/N=C1\SCC(=O)N1CCc1ccccc1,"inconclusive: 22.4 µM [inhibitor, single point]"
9,Cc1cccc(-c2cnn(-c3cccc([N+](=O)[O-])c3)c2N)c1,"inconclusive: 12.6 µM [inhibitor, partial curve]"
10,CC(=O)Nc1ccc(NC(=O)/C(=C/c2ccco2)NC(=O)c2ccccc2)cc1,"inconclusive: 14.1 µM [inhibitor, single point]"
11,COc1ccc(CC(=O)N2N=C(C)CC2(O)c2cccnc2)cc1 (stereo not given),inactive
12,CCOC(=O)N1CCN(c2nc(C)cc(C(F)(F)F)n2)CC1,"inconclusive: 25.1 µM [inhibitor, partial curve]"
13,COc1ccc(CNC(=O)Nc2ccc3c(c2)N(C)C(=O)c2ccccc2S3)cc1,"inconclusive: 2.24 µM [inhibitor, partial curve, poor fit]"
14,CN(C)c1ccc(/C=C2/C(=O)N(c3ccc([N+](=O)[O-])cc3)N=C2N2CCOCC2)cc1,active: 15.8 µM
15,CC(=O)C1=C(c2ccc(C)cc2)N(C(C)=O)n2c(nnc2C2CCCCC2)S1,"inconclusive: 12.6 µM [inhibitor, partial curve]"
16,CCOc1ccc(C2C(C(N)=O)=C(C)Nc3nc(SCc4ccccc4)nn32)cc1 (stereo not given),inactive
17,COc1ccc(-c2csc(Cc3nc(O)cs3)n2)cc1,"inconclusive: 6.31 µM [inhibitor, partial curve]"
18,COc1ccc(NC(=O)/C(C#N)=C\c2cc(OC)c(OCc3ccc(C(=O)O)cc3)cc2Br)cc1,"inconclusive: 2.82 µM [inhibitor, full curve]"
19,O=C(NCc1ccc2c(c1)CCN2C(=O)c1ccccc1)c1cc2ccccc2[nH]1,inactive
20,CCC(=O)c1ccc(OCc2ccc(C(=O)OC)cc2)cc1,"inconclusive: 0.126 µM [inhibitor, full curve]"
21,O=C(c1ccccc1)C(CCC(CN1CCOCC1)C(=O)c1ccccc1)CN1CCOCC1 (stereo not given),"inconclusive: 17.8 µM [inhibitor, partial curve]"
22,COc1cc(/C=N/NC(=O)COc2ccc(-n3cnnn3)cc2)ccc1OCC(N)=O,"inconclusive: 22.4 µM [inhibitor, single point]"
